The values below come from PubChem BioAssay AID1508624 (National Center for Advancing Translational Sciences (NCATS), 2021).

Each structure is given as a SMILES string. Among all 48,000 compounds or so, about 120 (0.25%) were called active. About 4% were inconclusive and are not listed. Calls follow the shape of the dose curve; as a rule, active = well fitted activation curve with a large enough effect; inconclusive = small, poorly fitted or top-dose-only effect, or another doubt; inactive = no such curve, though single readings can be large or run the other way. The entries are a selection whose mix differs from that of the whole data set. Entries without a call were filed so in the source.

The nature of the assay: Primary qHTS for Identification of Small Molecule Activators of Huntingtin-Antisense Promoter Activity. Also: nearly all actives have a fitted effect of over 55% in size. Particulars: HEK293 HTT-AS promoter firefly luciferase reporter, 24 h; activity change, positive = activation: at 57.5 µM (top of the series), percent change from vehicle, -100% = no light. A digest of the protocol:
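HEK293 cells carrying firefly luciferase reporters were seeded at 2,500 per well in Opti-MEM and cultured for 24 h. They were then treated with compounds at up to 57.5 uM final for 24 h at 37 degrees C before Dual-Glo luminescence readout.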
Regarding `COC(=O)c1cc2oc3ccccc3c2n1Cc1nc(-c2ccc(Cl)cc2)oc1C`, the activity change, positive = activation was found to be 2.41%.

Consider `COc1ccccc1-c1nc2c(c(SCC(=O)Nc3ccc(C)c(C)c3)n1)Cc1c(CO)cnc(C)c1O2`, for which the “activity change, positive = activation” value is inactive: -27.2%.

Consider `CCOc1ccc(CCNC(c2cccc(Cl)c2)c2nnc(-c3ccccc3)o2)cc1OCC` (stereo unspecified), for which the activity change, positive = activation was -19.7%.

Take `O=C(NCCc1ccc(Cl)cc1)c1cnc2sc(N3CCCCC3)nn2c1=O`: the activity change, positive = activation is -3.06%.

For the compound `Cc1ccccc1NC(=O)c1c(C)oc2ccc(O)c(CN3CCC(C)CC3)c12`, the activity change, positive = activation is -15.9%.

Take `COc1cccc2c1Oc1nc(-c3ccccc3)nc(SCC(=O)Nc3ccccc3)c1C2`: the “activity change, positive = activation” value is inactive: -23.3%.

Take `Cc1nc2ccn(Cc3ccco3)c(=O)c2cc1C(=O)NCc1ccccc1F`: the activity change, positive = activation was -13.9%.

For the compound `O=C(NCc1ccccc1Cl)C1CCN(S(=O)(=O)Cc2ccccc2)CC1`, the activity change, positive = activation turned out to be 1.43%.

Regarding `COc1ccccc1CCN1COc2c(cc3c(C)c(C)c(=O)oc3c2C)C1`, the activity change, positive = activation was -9.7%.

`CCc1ccc(NS(=O)(=O)c2ccc(-c3cc(C)no3)cc2)cc1`: the activity change, positive = activation was -26.8%.

Turning to `N#CNC(=NCCCCCCOc1ccc(Cl)cc1)Nc1ccncc1`, the “activity change, positive = activation” value is inactive: -43.8%.

Take `Cc1cc(Cl)ccc1NC(=O)Cc1ccc(NC(=O)N2CCCCc3ccccc32)cc1`: the “activity change, positive = activation” value is inactive: -3.06%.

Consider `CC(=O)N1CCCc2cc(S(=O)(=O)N3CCCC(C(=O)N4CCN(c5ccccc5)CC4)C3)ccc21` (stereo unspecified), for which the “activity change, positive = activation” value was inactive: -24.3%.

For the compound `COc1ccc2c(c1)cc1c(=O)n(CC(=O)NC(C)CCc3ccccc3)nc(C)n12` (stereo unspecified), the activity change, positive = activation is -8.69%.

As for `Cc1ccc2oc(-c3ccc(Cl)c(NC(=O)Cc4ccccc4)c3)nc2c1`, the activity change, positive = activation amounted to 0.765%.

In the case of `COc1ccc(C2(Nc3cccc(F)c3)C(=O)c3ccccc3C2=O)cc1`, the activity change, positive = activation was -9.33%.

For the compound `Cc1nn(-c2ccc(N3CCCCC3)nn2)c(C)c1CCC(=O)Nc1ccc(F)cc1F`, the activity change, positive = activation was 16%.

Consider `CCCCN(CC)C(=O)c1nn(C)c2c1CSc1ccccc1-2`, for which the “activity change, positive = activation” value is inactive: -4.25%.

Consider `Cc1ccc(C)c(CN2C(=O)C(O)(c3c(C)[nH]c4ccccc34)c3ccccc32)c1` (stereo unspecified), for which the “activity change, positive = activation” value is inactive: -25.9%.

Consider `CCOC(=O)c1cc(C)n(CC2CCC(C(=O)Nc3ccccc3OC)CC2)c1C` (stereo unspecified), for which the activity change, positive = activation is -5.18%.

Take `Clc1ccccc1-c1nnc(COc2ccccc2)o1`: the activity change, positive = activation was determined as 58.8%.

For the compound `O=C(C1CCN(S(=O)(=O)Cc2ccccc2)CC1)N1CCN(c2cccc(C(F)(F)F)c2)CC1`, the activity change, positive = activation was -9.9%.

`O=C(CSC1=Nc2ccccc2N=C(c2ccc(F)cc2)C1)Nc1ccccc1`: the “activity change, positive = activation” value was inactive: -28%.

Turning to `Cc1nc2scc(C)n2c(=O)c1S(=O)(=O)NCCc1ccccc1`, the activity change, positive = activation was found to be 2.32%.

Regarding `Cc1cc(Nc2ccc(C(=O)O)c(O)c2)n2ncnc2n1`, the activity change, positive = activation was found to be 9.1%.

Turning to `COc1cc(Cl)c(C)cc1NC(=O)c1cnn(-c2ccc(C)cc2)c1-n1cccc1`, the activity change, positive = activation was 1.92%.

For `COc1cccc(C(=O)N2CCC(N3CCN(Cc4ccc(F)cc4)C(=O)C3=O)CC2)c1`, the activity change, positive = activation was 3.24%.

`Cc1ccc(Cl)cc1NC(=O)c1cccc(NC(=O)N2CCSc3ncccc32)c1`: the “activity change, positive = activation” value was inactive: -32.8%.

On to `COc1ccc(S(=O)(=O)N(CCc2ccccc2)CC(=O)NCc2ccccc2)cc1OC`, for which the activity change, positive = activation was -26.4%.

Turning to `c1ccc(N2CCN(c3ncnc4[nH]ncc34)CC2)cc1`, the “activity change, positive = activation” value is inactive: -1.98%.

In the case of `COC(=O)c1ccc(NC(=O)CC2C(=O)N(c3ccc(F)cc3)C(=O)N2Cc2ccc(OC)cc2)cc1` (stereo unspecified), the activity change, positive = activation was -10.6%.

On to `CCOC(=O)c1cc(C)n(CC2CCC(C(=O)Nc3ccc(OCC)cc3)CC2)c1C` (stereo unspecified), for which the activity change, positive = activation was -38.1%.

On to `CCc1ccc(NC(=O)CC2C(=O)N(c3ccc(Cl)cc3)C(=O)N2Cc2cccs2)cc1` (stereo unspecified), for which the activity change, positive = activation is 1.81%.

As to `COc1ccc(O)c(C2Nc3ccccc3-n3c(-c4ccccc4)c4c(=O)n(C)c(=O)n(C)c4c32)c1` (stereo unspecified), the activity change, positive = activation is -21.7%.

On to `COc1ccc(S(=O)(=O)Nc2cccc(-c3ccc(N4CCCCCC4)nn3)c2)cc1`, for which the activity change, positive = activation amounted to 30.6%.

Turning to `O=C(NCCSCc1ccccc1Cl)C1CCN(S(=O)(=O)Cc2ccccc2)CC1`, the activity change, positive = activation is -10.2%.

Take `Cc1nn(-c2ccc(N3CCCC3)nn2)c(C)c1CCC(=O)NCc1ccccc1F`: the activity change, positive = activation was -6.83%.

For `COc1ccc(CN2C(=O)N(c3ccc(F)cc3)C(=O)C2CC(=O)Nc2cc(OC)cc(OC)c2)cc1` (stereo unspecified), the activity change, positive = activation is -17.7%.

Take `COc1ccc(-c2c3c(=O)n(C)c(=O)n(C)c3c3n2-c2ccccc2NC3c2ccc(O)cc2O)cc1` (stereo unspecified): the activity change, positive = activation is -12%.

Turning to `O=C(CSc1nc(-c2cccs2)nc2cc(=O)[nH]n12)Nc1cccc(C(F)(F)F)c1`, the activity change, positive = activation was -11.6%.

Consider `COc1ccc(CCNC(c2ccc(F)cc2)c2nnc(-c3ccccc3Cl)o2)cc1OC` (stereo unspecified), for which the activity change, positive = activation is -25.9%.

On to `CCOC(=O)/C(C#N)=C/c1ccc(-c2ccc(Br)cc2)o1`, for which the activity change, positive = activation is 18.3%.

In the case of `Cc1nn(-c2ccc(N3CCCCC3)nn2)c(C)c1CCC(=O)NCc1ccc(OC(C)C)cc1`, the activity change, positive = activation was -35.4%.

For the compound `CCc1ccc(CNCc2c(C(=O)O)c(C)n(Cc3c(F)cccc3Cl)c2C)cc1`, the “activity change, positive = activation” value is inactive: -17.6%.

Consider `COc1ccc(CCNC(=O)Cn2nc(C)n3c(cc4cc(F)ccc43)c2=O)cc1OC`, for which the activity change, positive = activation was -6.1%.

Turning to `Cc1ccc(C)c(N2CCN(C(=O)c3cc4c(=O)n(Cc5ccco5)ccc4nc3C)CC2)c1`, the activity change, positive = activation was -25.3%.
